Reference: PubChem BioAssay AID1345083 (National Center for Advancing Translational Sciences (NCATS), 2018)
Several values for one entry are separate records, joined by “and”; a condition that tells them apart may be missing. Identical values can stand only once. Among all 94,000 compounds or so, about 6,200 (6.6%) were called active. This list was built around the results that the source calls inconclusive (neither active nor inactive); the mix of calls is not that of the screen. Calls come from the whole dose curve; as a rule, active = well fitted inhibition curve with a large enough effect; inconclusive = small, poorly fitted or top-dose-only effect; inactive = flat fitted curve, though single readings scatter. Potencies of inconclusive entries are doubtful fits and often do not repeat.
% is set by controls: 0 for no effect and ±100 for the full control effect; potency is the fitted concentration of half-maximal effect; tags give direction and shape of the fitted curve.

Test: Cytotoxic Profiling in HEK 293 Cell Line of Diverse Libraries Using Quantitative High-Throughput Screening; note: nearly all actives have a fitted effect of over 60% in size
Settings: HEK 293 viability, ATP luminescence (CellTiter-Glo), 48-72 h; activity change, negative = cytotoxicity: at 115 µM (top of the series) unless noted; series mostly up to 115 µM
How it was run: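 Cytotoxicity was scored by loss of ATP-coupled luminescence (CellTiter-Glo) in HEK 293 cells. Compound treatment ran 48 or 72 hr at 37 degree Celsius, 5% CO2, 95% humidity.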
For `CCCOc1ccc(CN2C[C@@H](CO)[C@H](C(=O)N(C)C)C2)cc1`, the Potency was inconclusive: 44.7 µM [inhibitor, partial curve].
With `Cc1cccc(CNCc2ccccc2OCC(O)CN2CCSCC2)c1` (stereo not given) the Potency was inconclusive: 22.4 µM [inhibitor, full curve, poor fit].
In the case of `COc1ccccc1C(=O)N1CCCC1C(=O)N1CCC(N2CCCC2=O)CC1` (stereo not given), the “activity change, negative = cytotoxicity” value is reported as inactive: -5.58%.
In the case of `COc1ccc2ccc(OCc3nc(C(=O)N4CC(N5CCCCC5)C4)co3)cc2c1`, the Potency is reported as inconclusive: 50.1 µM [inhibitor, partial curve, poor fit].
For `Cc1cnc(NC(=O)c2ccc3c(c2)OCCN(C2CCC2)C3)s1`, the Potency was inconclusive: 70.8 µM [inhibitor, partial curve].
For `Cc1noc(C)c1-c1cc2cc(C(C)C)oc2c(N2CCN(C)C(=O)C2)n1`, the Potency was inconclusive: 44.7 µM [inhibitor, partial curve, poor fit].
In the case of `COc1cccc(N2CC3(COCCN(C(=O)c4ccc(OC)c(OC)c4)C3)C2)c1`, the Potency is reported as inconclusive: 100 µM [inhibitor, partial curve, poor fit].
With `COc1cccc(-c2ccc(C(=O)N3CCC(C(=O)NCc4ccc(F)cc4)CC3)cc2)c1` the Potency was inconclusive: 35.5 µM [inhibitor, partial curve, poor fit].
In the case of `COc1ccccc1CN1Cc2cc(NC(=O)c3ccc4c(c3)OCO4)ccc2OC(C)C1=O` (stereo not given), the Potency is reported as active: 39.8 µM.
With `CN(Cc1ccccc1)C(=O)C1CC(=O)N(c2n[nH]c3cc(Br)ccc23)C1` (stereo not given) the Potency was inconclusive: 79.4 µM [inhibitor, single point].
With `COc1cccc(OCc2cc(C(=O)N(C)CC(O)CO)n[nH]2)c1` (stereo not given) the “activity change, negative = cytotoxicity” value was inactive: 0.112%.
For `COc1ccc(-c2cnc3n[nH]c(-c4ccccc4)c3n2)cc1`, the Potency was active: 89.1 µM.
With `CCCNC(=O)N1CCC2(CCCN(Cc3cccc(F)c3F)C2=O)C1` (stereo not given) the “outcome” value was “inactive”.
In the case of `COc1ccc(CNC(=O)C[C@@H]2CCNC[C@@H]2Cc2cc(-c3ccc(C(C)(C)C)cc3)on2)cc1OC`, the Potency is reported as active: 25.1 µM.
In the case of `O=C(Cn1nc2c(cc1=O)CCCC2)N1CCc2c([nH]c3ccccc23)C1`, the “activity change, negative = cytotoxicity” value is reported as inactive: 2.79%.
For `CC(C)c1ccc(OCc2nc3c(n2Cc2ccccc2)C(=O)N(CC2CCOCC2)CCN3)cc1`, the Potency was inconclusive: 63.1 µM [inhibitor, partial curve, poor fit].
For `COCCCNC(=O)c1cc2c(=O)[nH]c(-c3ccccc3)cn2n1`, the Potency was inconclusive: 31.6 µM [inhibitor, full curve, poor fit].
For `COCCNC(=O)CN1C(=O)NC2(CCC(C(C)(C)C)CC2)C1=O` (stereo not given), the “activity change, negative = cytotoxicity” value was inactive: -19.9%.
With `CCc1ccc([S+](=O)([O-])c2nnn3c2nc(NCCCOC)c2ccccc23)cc1` the “activity change, negative = cytotoxicity” value was inactive: -6.04%.
For `O=C(CNC(=O)c1cnccn1)NC1CCCc2c1[nH]c1ccc(F)cc21` (stereo not given), the Potency was inconclusive: 3.55 µM [inhibitor, full curve].
For `Cc1ccc(F)c(C(=O)NC(C)c2cnn(-c3ccccc3)c2C)c1Cl` (stereo not given), the Potency was inconclusive: 79.4 µM [inhibitor, single point].
In the case of `Cc1cc(C(=O)NC2CCNCC2)c2c(C3CCCN3)noc2n1` (stereo not given), the “activity change, negative = cytotoxicity” value is reported as inactive: -23.4%.
For `O=C(c1n[nH]c2ccccc12)N1CCC(Cc2noc(C3CCOCC3)n2)C1` (stereo not given), the Potency was inconclusive: 100 µM [inhibitor, single point].
For `Cc1ccccc1CCN1CCCC(CN(C)C(=O)Nc2ccccc2C)C1` (stereo not given), the “activity change, negative = cytotoxicity” value was inactive: -15.7%.
For `CNC(=O)c1cc(C2CC2)nc2onc(C3CCN([S+](=O)([O-])c4ccccc4)C3)c12` (stereo not given), the Potency was inconclusive: 89.1 µM [inhibitor, single point].
With `O=C1[C@H]2CN(Cc3cccc(F)c3F)C[C@H]2C(=O)N1Cc1ccc2c(c1)OCO2` the Potency was inconclusive: 79.4 µM [inhibitor, partial curve, poor fit].
With `O=C(NCCc1ccccc1)Nc1cccc(-c2ccc(N3CCCCC3)nn2)c1` the Potency was inconclusive: 35.5 µM [inhibitor, full curve].
In the case of `CNC(=O)c1cc[nH]c1C1CCCN(C(=O)CCc2nc3ccccc3[nH]2)C1` (stereo not given), the “activity change, negative = cytotoxicity” value is reported as inactive: -18.3%.
For `CCOc1ccc(-c2cc3c(=O)n(CCNC(=O)c4ccc(C)c(C)c4)ccn3n2)cc1`, the “activity change, negative = cytotoxicity” value was inactive: 2.9%.
With `O=C(Nc1cccn2nc(C3CCC3)nc12)c1ccccn1` the Potency was inconclusive: 31.6 µM [inhibitor, full curve].
In the case of `COc1ccc(CN2CCOC[C@H]2c2ncc(-c3ccc(C)cc3)[nH]2)cc1`, the Potency is reported as inconclusive: 31.6 µM [inhibitor, full curve, poor fit].
With `CCOc1ccc2c(n1)CCN(C(=O)COc1ccccc1)C2` the “activity change, negative = cytotoxicity” value was inactive: 8.18%.
With `O=C1NCc2ccccc2CC12CCCN(Cc1cc(F)ccc1F)C2` (stereo not given) the Potency was inconclusive: 79.4 µM [inhibitor, partial curve, poor fit].
For `O=C(NC1CN(c2ccnc3ccnn23)C1)c1cncc(Br)c1`, the Potency was inconclusive: 35.5 µM [inhibitor, full curve, poor fit].
With `COc1cccc(CN2CCCC(c3nc(-c4cccnc4)no3)CCNC(=O)CC2)c1OC` (stereo not given) the Potency was inconclusive: 89.1 µM [inhibitor, single point].
With `COCCN1C(=O)c2cccn2CC1CNC(=O)Nc1ccc2c(c1)OCCO2` (stereo not given) the “activity change, negative = cytotoxicity” value was inactive: -6.34%.
With `COc1ccc(C(=O)N2CCC3(CC2)N=C(c2cccc(Br)c2)NO3)cc1F` the Potency was inconclusive: 79.4 µM [inhibitor, partial curve, poor fit].
For `Cc1ccc([S+](=O)([O-])N2CCCC(C(=O)N3CCC(c4nc5ncccc5[nH]4)C3)C2)cc1` (stereo not given), the Potency was inconclusive: 89.1 µM [inhibitor, partial curve, poor fit].
In the case of `COc1ccc(CCNC(=O)c2ccc3nnc(Cc4ccc(Cl)cc4)n3c2)cc1`, the Potency is reported as inconclusive: 50.1 µM [inhibitor, partial curve, poor fit].
In the case of `COc1cc(C(=O)N2CCC(Cc3nc(C(C)C)no3)CC2)cc(OC)c1OC`, the Potency is reported as inconclusive: 89.1 µM [inhibitor, single point].
With `CCOc1ccc(-c2cc3c(=O)n(CCNC(=O)c4ccc(F)c(F)c4)ccn3n2)cc1` the “outcome” value was “inactive”.
In the case of `Cc1noc(-c2ccc(OC3CN(C(=O)CCCc4ccccc4)C3)cc2)n1`, the Potency is reported as inconclusive: 50.1 µM [inhibitor, partial curve, poor fit].
For `COc1ccc2[nH]c(C(=O)NC3CCc4nn(C)c(=O)n4CC3)cc2c1` (stereo not given), the “activity change, negative = cytotoxicity” value was inactive: -0.957%.
With `O=C(c1nnc(COc2cc(F)cc(F)c2)n1-c1ccccc1)N1CCC[C@@H]1c1nc2ccccc2[nH]1` the Potency was inconclusive: 79.4 µM [inhibitor, partial curve, poor fit].
In the case of `O=c1[nH]c(C2CCCN(Cc3ccc(-c4ccccc4)cc3)C2)nc2ccc(F)cc12` (stereo not given), the Potency is reported as inconclusive: 56.2 µM [inhibitor, partial curve, poor fit] and active: 31.6 µM.
For `CCC1Oc2ccc(NC(=O)COC)cc2CN(Cc2ccc(Cl)cc2)C1=O` (stereo not given), the Potency was inconclusive: 50.1 µM [inhibitor, partial curve, poor fit].
In the case of `Cc1ccc(C(=O)NC2CCCN(c3ccc4nnc(C)n4n3)C2)cc1` (stereo not given), the Potency is reported as inconclusive: 50.1 µM [inhibitor, partial curve].
With `O=C1CN(C(=O)C2CCCC2)CC(O)CN1CCCc1ccccc1` (stereo not given) the Potency was inconclusive: 50.1 µM [inhibitor, partial curve, poor fit].
In the case of `O=c1c2c(CO)c(-c3ccc(F)cc3)nn2ccn1Cc1ccc(F)cc1`, the Potency is reported as inconclusive: 15.8 µM [inhibitor, full curve].
For `Cc1ccc(C)c2c(=O)cc(CN3CCN(CCn4cncn4)CC3)[nH]c12`, the “activity change, negative = cytotoxicity” value was inactive: -24%.
For `COCC[C@]1(O)CCN(Cc2cc(F)ccc2-n2cccn2)C[C@H]1C`, the Potency was inconclusive: 89.1 µM [inhibitor, single point].
With `O=C1Nc2ccccc2OCC12CCN(Cc1cccc3ccccc13)CC2` the Potency was inconclusive: 89.1 µM [inhibitor, partial curve, poor fit].
With `Cc1ccc(-c2c(C(=O)NCc3ccc(Cl)cc3)nc3sccn23)cc1` the Potency was inconclusive: 22.4 µM [inhibitor, full curve, poor fit].
In the case of `NC1CCc2nn(CC(=O)NCc3ccc4c(c3)OCO4)c(=O)n2CC1` (stereo not given), the “outcome” value is reported as “inactive”.
With `O=C(c1cccs1)N1CCC(c2noc(-c3ccncc3)n2)C1` (stereo not given) the “activity change, negative = cytotoxicity” value was inactive: -0.185%.
In the case of `CCCN1CCC2(CCN(C(=O)c3ccc(OC)cc3)CC2)Oc2ccccc21`, the Potency is reported as active: 44.7 µM.
In the case of `O=C(NCc1ccc(F)cc1)c1cc(-c2ccc[nH]2)n[nH]1`, the “activity change, negative = cytotoxicity” value is reported as inactive: -20.3%.
For `CC(=O)N1CCCC2(C1)CN(C)c1ccc(C(=O)NCCc3ccccc3)cc12` (stereo not given), the Potency was inconclusive: 100 µM [inhibitor, partial curve].
With `Cc1ccccc1C(=O)N1CCC(n2cc(-c3nc(-c4ccccc4)no3)nn2)CC1` the Potency was inconclusive: 50.1 µM [inhibitor, partial curve, poor fit].
For `Cc1ccc(-c2ccnc(N3CCC(N(C)Cc4ccon4)CC3)n2)c(C)n1`, the Potency was inconclusive: 79.4 µM [inhibitor, partial curve, poor fit].
For `C=CCNC(=O)[C@@H]1[C@H](c2cc(OC)c(OC)c(OC)c2)c2cc3c(cc2[C@H](O)[C@H]1CO)OCO3`, the Potency was inconclusive: 79.4 µM [inhibitor, single point].
For `Cc1nnc(-c2cc(-c3ccncc3)ccn2)n1CCN1CCOCC1`, the “outcome” value was “inactive [at 172 µM]”.
For `O=C1COc2ccc(-c3cc4ccccc4o3)nc2CN1CCOc1ccccc1`, the Potency was inconclusive: 79.4 µM [inhibitor, partial curve, poor fit].
With `COCCN1C(=O)c2ccccc2C(C(=O)Nc2nc(C)cs2)C12CCCCC2` (stereo not given) the “activity change, negative = cytotoxicity” value was inactive: -8.32%.
For `Nc1cccc(-c2ccc(N3CCCCC3)nn2)c1`, the Potency was active: 35.5 µM.
